T1: UNK ZnF1-6 (called full-length) (human, UniProt Q9C0B0 30-357)
T1 sequence: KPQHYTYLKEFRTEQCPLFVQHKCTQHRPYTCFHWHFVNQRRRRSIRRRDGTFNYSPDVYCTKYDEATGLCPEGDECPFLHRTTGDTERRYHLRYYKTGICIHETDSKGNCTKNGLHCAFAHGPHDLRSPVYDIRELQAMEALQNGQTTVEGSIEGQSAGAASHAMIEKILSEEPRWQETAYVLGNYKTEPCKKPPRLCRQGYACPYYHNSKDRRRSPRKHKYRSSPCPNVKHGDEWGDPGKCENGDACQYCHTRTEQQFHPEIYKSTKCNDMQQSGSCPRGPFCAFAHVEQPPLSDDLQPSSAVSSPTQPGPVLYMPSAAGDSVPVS

B1: chrX:21994482:21994713:+|3pUTR|ENSG00000102172|msi1|total|mutant (ssRNA)
RNA: GGGAGUUCUACAGUCCGACGAUCCAGCUGAAGGAUGGUCCGACAGCACAGCGAAGACUGCUAAAUGCACUGACCCCCCCCAUCCGAAUGUGAUUUUUGUUCCUUUUUAUUUCUCUGUGGGCUUUUGUUUUUGUUUUUGUUUUGCAACAGAGGAUUGAGCAUCA
B2: ENSG00000107863:be:win_5901|3pUTR|ENSG00000107863|bound_else_gene|NA|bound_elsewhere_windowed (ssRNA)
RNA: GGGAGUUCUACAGUCCGACGAUCAAGUAAAAAAACUACUGUUACACGUUCCAGUAACUCUGUCAAUAUUUUCUUGUAUCAGAAUUGUUAUUAUGCAGCCUUCAUUUGGGCUGGUUUCAUCAUUUUGCACUGUGAAAUAGCUUUCAACAGAGGAUUGAGCAUCA
B3: chr22:29286963:29287064:+|CDS|ENSG00000182944|unk|FALSE|unique (ssRNA)
RNA: GGGAGUUCUACAGUCCGACGAUCCAGAGCAGUUACUCUCAGCAGAACACCUAUGGGCAACCGAGCAGCUAUGGACAGCAGAGUAGCUAUGGUCAACAAAGCAGCUAUGGGCAGCAGCCUCCCACUAGUUACCCACCCCAAACUCAACAGAGGAUUGAGCAUCA
B4: ENSG00000070961:be:win_5001|3pUTR|ENSG00000070961|bound_else_gene|NA|bound_elsewhere_windowed (ssRNA)
RNA: GGGAGUUCUACAGUCCGACGAUCGAAUCAGAUUAAGAAAAUUAACACAAUUUUACCAUUUGACAUACUCUUCAUUGAAUUUAGUUUGUCUAAAAUAGUCUCACAGGUAAAAAACAUAACAACAAUGACCACCAUUGUCUUUGACAACAGAGGAUUGAGCAUCA
B5: chr2:159230815:159230918:+|CDS|ENSG00000115183|unk|FALSE|unique (ssRNA)
RNA: GGGAGUUCUACAGUCCGACGAUCAACCUGUUCUGUUUCUACCCUGAGUGCAAGUGUCCACAAUGGGGCACAAGUGAAGGAGCUAGAAGAAAGCAAGUGCCAAAUUCCAGUCCACUCUCAAGAGAACAGGAUAACUAAGACUGUCAACAGAGGAUUGAGCAUCA
B6: chr8:17753977:17754079:-|CDS|ENSG00000129422|unk|FALSE|bound_elsewhere (ssRNA)
RNA: GGGAGUUCUACAGUCCGACGAUCAAAAAAGCAGAAAUUCUAAUUAACAAGACACAUAAGCAGCAGUUUAAUAAACUCAUUACUAGCCAGGCUGUGCAUGUUACAACUCAUUCUAAAAAUGCUUCACACAGGGUUCCAAGAACACAACAGAGGAUUGAGCAUCA

The list shows a part of the results.

The target of the assay is T1, UNK ZnF1-6 (called full-length). The assay can be described thus: nsRBNS (natural sequence RNA bind-n-seq); RBNS binding buffer (assumed for nsRBNS): 25 mM Tris pH 7.5, 150 mM KCl, 3 mM MgCl2, 0.01% Triton X-100, 500 ug/ml BSA, 20 U/ml SUPERase-In, 4 C; UNK is unkempt and MSI1 is Musashi-1; names of the RNAs are library labels; protein concentration not given here; high values mean tight binding.
Take B1: the binding signal turned out to be 0.898 enrichment R.

Take B2: the binding signal was found to be 0.386 enrichment R. Next, B3: 1.59 enrichment R. Under B4 stands 0.648 enrichment R; under B5, 0.586 enrichment R; under B6, 0.613 enrichment R.

These data come from publication PMC12136788.
